The whole screen tested about 48,000 compounds, of which about 1,200 (2.5%) were called active. Not shown: some 2% with an inconclusive outcome.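 Rule for the calls: active = activation of at least 60% and not above a set upper limit (about 1 call in 100 departs from these limits); inconclusive = activation of 40% to 60%, or above that upper limit; inactive = activation under 40%.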 This is one part of the list.
target: Probable G-protein coupled receptor 32 (Homo sapiens) (UniProt O75388); assay: qHTS for Agonists of Human Resolvin D1 Receptor DRV1; settings: CHO-K1 GPR32 beta-arrestin PathHunter luminescence, 90 min; at 76.9 µM; active compounds read high; zero percent set by DMSO-only wells; note: 0% is about no effect
Chain of UniProt O75388 (O75388 whole entry, looked up, the tested form may be a part): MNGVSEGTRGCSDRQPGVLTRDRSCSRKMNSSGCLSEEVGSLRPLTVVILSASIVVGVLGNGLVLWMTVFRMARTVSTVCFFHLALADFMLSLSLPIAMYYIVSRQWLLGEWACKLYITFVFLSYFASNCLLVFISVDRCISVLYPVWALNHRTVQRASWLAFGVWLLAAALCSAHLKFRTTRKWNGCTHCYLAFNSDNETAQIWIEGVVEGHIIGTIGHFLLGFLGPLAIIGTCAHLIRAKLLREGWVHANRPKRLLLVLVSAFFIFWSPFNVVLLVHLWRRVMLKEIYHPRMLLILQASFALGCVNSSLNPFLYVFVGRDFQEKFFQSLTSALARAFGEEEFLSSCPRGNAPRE
How it was run: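 Agonism was scored as beta-arrestin recruitment to ProLink-fused GPR32 in stably transfected CHO-K1 cells, giving a chemiluminescent beta-Gal signal; compounds were incubated 90 min at 37 °C.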

activation, inactive:
COc1ccc(Nc2cc(C(=O)NCCCN3CCN(c4ccccc4F)CC3)c3ccccc3n2)c(OC)c1 -36.9%, Cc1ccc(-c2ccc(=O)n(CCC(=O)NCCc3ccccc3)n2)cc1 34.9%, CCN(CC)CCNC(=O)c1cc2c(=O)n(C)c3cc(Cl)ccc3c2s1 6.28%, CCOC(=O)c1[nH]c(C)c(CCC(=O)NCc2ccc(CC)cc2)c1C -12.8%, COc1ccc(N(C)C(=O)c2cn(C)c(=O)c3cc(OC)c(OC)cc23)cc1 0.0355%, Cc1ccc(Cn2c(CO)cnc2SCC(=O)Nc2ccc(C)c(Cl)c2)cc1 31.9%, COc1ccc(NC(=O)c2ccc3nc(C(C)C)oc3c2)cc1OC -10.9%, O=C(c1cccn2c(=O)c3cc(Cl)ccc3nc12)N1CCN(c2ccccc2F)CC1 -9.07%, CC(C)c1ccc(NC(=O)c2ccc(F)c(S(=O)(=O)N3CCc4ccccc4C3)c2)cc1 -3.07%, CCOc1ccc(NC(=O)CC2C(=O)N(c3ccc(C)cc3)C(=O)N2CCC2=CCCCC2)cc1 (stereo not drawn) 8.1%, Nc1nonc1-c1nc2ccccc2n1Cc1cccc(Cl)c1 9.6%, CCOc1ccc(-n2nc(CO)c(C(=O)NCCCc3ccccc3)n2)cc1 -19.9%, CC(=O)Nc1ccc(S(=O)(=O)N2CCC(c3nnnn3-c3ccccc3)CC2)cc1 5.87%, CCOc1ccc(C(=O)Nc2cccc(C(=O)OCc3cc(=O)n4nc(C5CC5)sc4n3)c2)cc1 0.878%, COc1ccc(Cl)cc1NC(=O)Cn1cc(C(=O)c2ccc(C)cc2)c(=O)c2ccc(C)nc21 29.6%, COc1ccc(CCNC(=O)c2c(O)nc3ccccn3c2=O)cc1 9.73%, Cc1ccccc1CN1C(=O)C2(c3ccccc31)N(c1ccccc1)C(=O)CS2(=O)=O (stereo not drawn) -8.28%, CCOC(=O)c1ccccc1NC(=O)CSc1nc(=O)[nH]c2c1CCC2 -8.24%, O=C(COc1ccc(Cl)cc1)Nc1ccc(C(=O)OCc2cc(=O)n3ccsc3n2)cc1 15.5%, FC(F)(F)Oc1ccc2c(c1)NC(c1ccncc1)=NC(c1cccs1)=N2 -24.6%, COc1ccc2oc(=O)c(C(=O)Nc3ccc(C(=O)O)cc3)cc2c1 3.76%, C=CCc1cccc2cc(C(=O)Nc3ccc(F)cc3)c(=O)oc12 -3.59%, Cc1ccc(NC(=O)CCSc2nc(-c3ccco3)cc(C(F)(F)F)n2)cc1F -5.88%, Cc1ccn2c(=O)c(C(=O)NCCCN3CCCCC3C)c(O)nc2c1 (stereo not drawn) -18.4%, Nc1ccc(S(=O)(=O)Nc2ccc(Cl)nn2)cc1 29.5%, CCOC(=O)N1CCN(Cc2nc3cc(NC(=O)c4ccc(OC)cc4)ccc3n2C(C)C)CC1 -4.96%, COc1ccc(OCC(=O)Nc2nnc3n2CCS3)cc1 -9.64%, Cc1cc(C)c(NC(=O)CCn2c(=O)c3cccn3c3cccnc32)c(C)c1 -14.1%, Clc1cccc(CNc2cc(-c3ccccc3)nc3nncn23)c1 -24.1%, OCCN1CCN(C(c2ccccc2Cl)c2sc3nc(-c4ccco4)nn3c2O)CC1 (stereo not drawn) 11.9%, COc1cccc(-c2cn3c(n2)sc2cc(C(=O)NCCc4ccc(OC)c(OC)c4)ccc23)c1 -13.2%, N#CC1=C(N)N(c2cccc(Cl)c2)C2=C(C(=O)CCC2)C1c1cc(CN2CCOCC2)cs1 (stereo not drawn) -3.68%, CC(C)N1C(=O)C(O)(c2c[nH]c3ccccc23)c2ccccc21 (stereo not drawn) -1.44%, Cc1cccc(N2CCn3c2nc2c3c(=O)n(CCc3ccccc3)c(=O)n2C)c1 -9.94%, CCCS(=O)(=O)N1CC(=O)N(c2cc(C)ccc2C)C(C)(C(=O)NC2CCCCCC2)C1 (stereo not drawn) -8.91%, Cc1cccc(N2C(=O)CS(=O)(=O)C23C(=O)N(Cc2c(F)cccc2Cl)c2ccccc23)c1 (stereo not drawn) -8.12%, CSc1cccc(NC(=O)CN2CCN(Cc3ccccc3C)S2(=O)=O)c1 -17.4%, Cc1cc(N)c(-n2cc3c(c2-c2ccc(Br)cc2)c(=O)n(C)c(=O)n3C)cc1C -13.2%, Cc1cc(C)cc(Oc2coc3cc(OCC(=O)NC4CCCCC4)ccc3c2=O)c1 -6.69%, Cc1ccc2onc(CNC(=O)NCc3cccc(Cl)c3)c2c1 -4.05%, CCOc1ccc(OCC)c(NC(=O)CC(C)n2nc(C)cc2C)c1 (stereo not drawn) -16.7%, CCOc1ccc(-c2cc(C(=O)Nc3ccc(NC(C)=O)cc3)no2)cc1 -3.12%, O=C(O)CCCNc1cc(N2CCN(C3CCCCC3)CC2)c2noc3c2c1C(=O)c1ccccc1-3 9.13%, Cc1cc2oc(C(=O)Nc3ccc(S(=O)(=O)Nc4ncccn4)cc3)cc(=O)c2cc1C 9.87%, CCCOc1ccc(CNC(=O)c2ccc(-n3c(C)cc4c3CCC(C)C4)cc2)cc1 (stereo not drawn) -17.8%, CCOc1ccc(C2NC(=O)c3c(COC)cc(C)nc3N2Cc2ccccc2)cc1OC (stereo not drawn) -3.85%, Cc1ccc(Cn2cc(S(=O)(=O)c3cccc(Cl)c3)c(=O)c3cc(F)c(N4CCOCC4)cc32)cc1 -6.01%, CCN(C(=O)CSc1nc2ccccc2[nH]1)c1ccccc1 -23.2%, Cc1ccc(NC(=O)Cn2ccn(-c3ccccc3)c(=O)c2=O)cc1 -1.81%, COc1cc(OC)c(NC(=O)CCc2c(C)nc3cc(-c4ccccc4OC)nn3c2C)cc1Cl -12.8%, CC(C)OC(=O)c1c(NC(=O)C2c3ccccc3Oc3ccccc32)sc2c1CCCC2 2.7%, Cc1ccc(C)c(N2CCN(C(=O)c3ccc4c(c3)N(Cc3ccc(F)cc3)C(=O)c3ccccc3S4=O)CC2)c1 (stereo not drawn) -8.51%, CC1CCC(Nc2nc3c(-c4cccc(C(F)(F)F)c4)nnn3c3ccccc23)CC1 (stereo not drawn) 25.9%

From PubChem BioAssay AID1346428 (National Center for Advancing Translational Sciences (NCATS), 2018)
